Data reported in the RNAGym collection of RNA variant scans (doi:10.1073/pnas.2313332121).
Variants at the background level are over-represented here.

B1: TPR 5TU (parent)
chain: GGAUCUUCUCGAUCUAACAAAAAAGACAAAUCUGCCACAAAGCUUGAGAGCAUCUUCGGAUGCAGAGGCGGCAGCCUUCGGUGGCGCGAUAGCGCCAACGUUCUCAACUAUGACACGCAAAACGCGUGCUCCGUUGAAUGGAGUUUAUCAUG

Variants of: B1
Experiment: polymerase ribozyme fitness, log enrichment relative to wild type (log ratio); higher = more active; in vitro selection for triplet polymerase activity
In short: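 For each subunit of a heterodimeric triplet polymerase ribozyme, a mutant library was built by PCR and transcribed, then taken through a single in vitro selection round in triplicate. Selection involved annealing to a biotinylated primer, the partner subunit and triplets, incubation frozen at −7 °C, gel excision of extended constructs, capture on streptavidin beads and RT-PCR. Genotypes were retained after Illumina sequencing of inputs and outputs only with ≥10 input reads and ≥1 read in each output. Fitness is defined as the logarithm of a genotype's enrichment relative to wild-type enrichment, using inverse-variance-weighted averages across replicates, with the logarithm taken to base 2.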

**Q.** Which “polymerase ribozyme fitness (log ratio)” value does the source give for A19C A39G A41U U78G G94U A107G A121U G140C G143C U146G here?
**A.** ≤ -4.2

**Q.** With A19U C38G C43U G80C C85A G92C C93A U146A as the variant, how does the “polymerase ribozyme fitness (log ratio)” value read?
**A.** ≤ -4.2

**Q.** For A19U G88C, which “polymerase ribozyme fitness (log ratio)” value is on record?
**A.** ≤ -4.2

**Q.** For A19C G62C A73C G86A C96G, which “polymerase ribozyme fitness (log ratio)” value is on record?
**A.** ≤ -4.2

**Q.** With A19C A26C A29U G92C A97G U145G as the variant, how does the “polymerase ribozyme fitness (log ratio)” value read?
**A.** ≤ -4.2

**Q.** Which “polymerase ribozyme fitness (log ratio)” value does the source give for A19U A21U C76A C87U G152C here?
**A.** ≤ -4.2

**Q.** Which “polymerase ribozyme fitness (log ratio)” value does the source give for A19U C43U A73U C79U A106U A107C here?
**A.** ≤ -4.2

**Q.** Which “polymerase ribozyme fitness (log ratio)” value does the source give for A19G A24C A28C A39U A40G A113G here?
**A.** ≤ -4.2

**Q.** Which “polymerase ribozyme fitness (log ratio)” value does the source give for A19U A24U A28C U55C G83A G84A here?
**A.** ≤ -4.2

**Q.** Which “polymerase ribozyme fitness (log ratio)” value does the source give for C18U A39U G48C C51U A52C U55A A66C C85G C116U A120U G141C here?
**A.** ≤ -4.2

**Q.** Which “polymerase ribozyme fitness (log ratio)” value does the source give for C18U U53A C85A C96A A137G here?
**A.** ≤ -4.2

**Q.** Which “polymerase ribozyme fitness (log ratio)” value does the source give for A19C A26G C27G G48A C76A G83U A97U C118A G126A here?
**A.** ≤ -4.2

**Q.** With A19U A49C A91G as the variant, how does the “polymerase ribozyme fitness (log ratio)” value read?
**A.** ≤ -4.2

**Q.** Which “polymerase ribozyme fitness (log ratio)” value does the source give for A19G A52G G94C C108U A150U here?
**A.** ≤ -4.2

**Q.** For C18U U31G G67C G86U U109C, which “polymerase ribozyme fitness (log ratio)” value is on record?
**A.** ≤ -4.2

**Q.** For A19G A21U C87U A97U C116U A137C A138C, which “polymerase ribozyme fitness (log ratio)” value is on record?
**A.** ≤ -4.2

**Q.** Which “polymerase ribozyme fitness (log ratio)” value does the source give for A19U G46A C93G C95U U104G here?
**A.** ≤ -4.2

**Q.** With A19U G34A A47U C76A C116U as the variant, how does the “polymerase ribozyme fitness (log ratio)” value read?
**A.** ≤ -4.2

**Q.** With A19U C32A C87A C114G G136C U146C as the variant, how does the “polymerase ribozyme fitness (log ratio)” value read?
**A.** ≤ -4.2

**Q.** Which “polymerase ribozyme fitness (log ratio)” value does the source give for A19U C43U C93G C118U here?
**A.** ≤ -4.2

**Q.** With C18U C35U A37U C87G G126U C149A as the variant, how does the “polymerase ribozyme fitness (log ratio)” value read?
**A.** ≤ -4.2

**Q.** For A19G C51A U55A G133A, which “polymerase ribozyme fitness (log ratio)” value is on record?
**A.** ≤ -4.2

**Q.** Which “polymerase ribozyme fitness (log ratio)” value does the source give for A19C A20U C35G G50U U55A C85G C108G U127A here?
**A.** ≤ -4.2

**Q.** Which “polymerase ribozyme fitness (log ratio)” value does the source give for C18U G84A A113G C114U here?
**A.** -2.6

**Q.** Which “polymerase ribozyme fitness (log ratio)” value does the source give for A19C A20U C57U G88C G133C U135G U145A here?
**A.** ≤ -4.2

**Q.** With A19C U56A A91U A147C as the variant, how does the “polymerase ribozyme fitness (log ratio)” value read?
**A.** ≤ -4.2

**Q.** For A19G A91C C116A G141A U145G, which “polymerase ribozyme fitness (log ratio)” value is on record?
**A.** ≤ -4.2

**Q.** For A19G A22C G42C U53A G58C C103G C108G, which “polymerase ribozyme fitness (log ratio)” value is on record?
**A.** ≤ -4.2

**Q.** With C18U G25C A26C C32G G50U G58C C75U A91G C114A as the variant, how does the “polymerase ribozyme fitness (log ratio)” value read?
**A.** ≤ -4.2

**Q.** With A19C C43A U61A G62C G80C C85U G86U A107U C131G as the variant, how does the “polymerase ribozyme fitness (log ratio)” value read?
**A.** ≤ -4.2

**Q.** With A19C C36U G70A G80U C105U G152U as the variant, how does the “polymerase ribozyme fitness (log ratio)” value read?
**A.** -3.99

**Q.** For A19C C72A C85A C103G G141C, which “polymerase ribozyme fitness (log ratio)” value is on record?
**A.** ≤ -4.2

**Q.** Which “polymerase ribozyme fitness (log ratio)” value does the source give for A19U A49G G83U A91U G136U U148G here?
**A.** ≤ -4.2

**Q.** Which “polymerase ribozyme fitness (log ratio)” value does the source give for A19U A29U U31A G48C G92U here?
**A.** ≤ -4.2

**Q.** Which “polymerase ribozyme fitness (log ratio)” value does the source give for A19C U31A G34A C69U G71A G81A G84C C87A A97U G124C here?
**A.** ≤ -4.2

**Q.** Which “polymerase ribozyme fitness (log ratio)” value does the source give for A19C A30G C87U G128C G136U here?
**A.** ≤ -4.2

**Q.** Which “polymerase ribozyme fitness (log ratio)” value does the source give for A19G A49C U55A A91U C105U C132G here?
**A.** ≤ -4.2

**Q.** With A19G A24G A66G G68C C96G as the variant, how does the “polymerase ribozyme fitness (log ratio)” value read?
**A.** ≤ -4.2

**Q.** Which “polymerase ribozyme fitness (log ratio)” value does the source give for A19G A41U C57U G84U U146A A147U U151A here?
**A.** ≤ -4.2

**Q.** Which “polymerase ribozyme fitness (log ratio)” value does the source give for A19C A24C U44A C96G C103A here?
**A.** ≤ -4.2

**Q.** With C18U G86A G140A as the variant, how does the “polymerase ribozyme fitness (log ratio)” value read?
**A.** ≤ -4.2

**Q.** Which “polymerase ribozyme fitness (log ratio)” value does the source give for C18U A40G here?
**A.** -2.32

**Q.** With A19C U61A C87U C96G A97C C99U A110C as the variant, how does the “polymerase ribozyme fitness (log ratio)” value read?
**A.** ≤ -4.2

**Q.** With A19G C38A C57U U82C C95G C99U as the variant, how does the “polymerase ribozyme fitness (log ratio)” value read?
**A.** ≤ -4.2

**Q.** With C18U A30G G48A A73G C87G G128C as the variant, how does the “polymerase ribozyme fitness (log ratio)” value read?
**A.** ≤ -4.2

**Q.** Which “polymerase ribozyme fitness (log ratio)” value does the source give for A19U A73G G83A U90C A107G here?
**A.** ≤ -4.2

**Q.** With A19U C32G G50A G62A U90G A91U C116A as the variant, how does the “polymerase ribozyme fitness (log ratio)” value read?
**A.** ≤ -4.2

**Q.** With A19G A41U C93A G141A as the variant, how does the “polymerase ribozyme fitness (log ratio)” value read?
**A.** ≤ -4.2

**Q.** For A19C G92U, which “polymerase ribozyme fitness (log ratio)” value is on record?
**A.** 0.745

**Q.** For A19C G92A, which “polymerase ribozyme fitness (log ratio)” value is on record?
**A.** -2.38

**Q.** With A19U A30C G42A C43G C54G G70U U77C C96G A107G as the variant, how does the “polymerase ribozyme fitness (log ratio)” value read?
**A.** ≤ -4.2

**Q.** Which “polymerase ribozyme fitness (log ratio)” value does the source give for A19C A41G G59U A91C A107G A120U here?
**A.** ≤ -4.2

**Q.** With A19C A21C U33A U56A G74A G88C U90G U101G C108G C123U G126U as the variant, how does the “polymerase ribozyme fitness (log ratio)” value read?
**A.** ≤ -4.2

**Q.** With C18U C27G A30U C75U C96A C105A A122U U134A as the variant, how does the “polymerase ribozyme fitness (log ratio)” value read?
**A.** ≤ -4.2

**Q.** With A19C G25C A40G U55A U134C U148C as the variant, how does the “polymerase ribozyme fitness (log ratio)” value read?
**A.** ≤ -4.2

**Q.** For A19U C93U C95A G100U A113C, which “polymerase ribozyme fitness (log ratio)” value is on record?
**A.** ≤ -4.2

**Q.** Which “polymerase ribozyme fitness (log ratio)” value does the source give for A19C A40C C51A C87A C116A G136U U139C U148C here?
**A.** ≤ -4.2

**Q.** For A19U A26C C35U U55G U56C G68U A73G G81A U148C C149A, which “polymerase ribozyme fitness (log ratio)” value is on record?
**A.** ≤ -4.2

**Q.** Which “polymerase ribozyme fitness (log ratio)” value does the source give for A19C C54A C123A G128A U144A here?
**A.** ≤ -4.2

**Q.** With A19U A37U C38U G80U G83U A150G as the variant, how does the “polymerase ribozyme fitness (log ratio)” value read?
**A.** ≤ -4.2

**Q.** With A19G G50C G80C A98U G124A A150U as the variant, how does the “polymerase ribozyme fitness (log ratio)” value read?
**A.** ≤ -4.2

**Q.** Which “polymerase ribozyme fitness (log ratio)” value does the source give for A19U A24C C27G C95A C103G A119U A121U here?
**A.** ≤ -4.2

**Q.** For A19G C99G A119G G143U, which “polymerase ribozyme fitness (log ratio)” value is on record?
**A.** ≤ -4.2

**Q.** With A19G A22C A28G C36A C95U C105G as the variant, how does the “polymerase ribozyme fitness (log ratio)” value read?
**A.** ≤ -4.2

**Q.** For C18U G62A G67A U77G C87A U101C C123U G136A, which “polymerase ribozyme fitness (log ratio)” value is on record?
**A.** ≤ -4.2

**Q.** For A19G C43A C51U C57U G84C U102G U139A A142U, which “polymerase ribozyme fitness (log ratio)” value is on record?
**A.** ≤ -4.2

**Q.** Which “polymerase ribozyme fitness (log ratio)” value does the source give for A19U C57U G62U C69U C85U C99G U130C G136U U146G here?
**A.** ≤ -4.2

**Q.** Which “polymerase ribozyme fitness (log ratio)” value does the source give for A19C U31A C57A C95G C105A G128C C149A here?
**A.** ≤ -4.2

**Q.** For A19U A23U U90G C105A, which “polymerase ribozyme fitness (log ratio)” value is on record?
**A.** ≤ -4.2

**Q.** For A19U A26C A30U C35U A41U G84A U90G C96U U148C, which “polymerase ribozyme fitness (log ratio)” value is on record?
**A.** ≤ -4.2

**Q.** For C18U U90C C96G C99A, which “polymerase ribozyme fitness (log ratio)” value is on record?
**A.** ≤ -4.2

**Q.** For A19U A49C C76A C93U U146A U151C, which “polymerase ribozyme fitness (log ratio)” value is on record?
**A.** ≤ -4.2

**Q.** Which “polymerase ribozyme fitness (log ratio)” value does the source give for A19G A20U C54U G133U U145G here?
**A.** ≤ -4.2

**Q.** Which “polymerase ribozyme fitness (log ratio)” value does the source give for C18U G50U C96G U146C here?
**A.** -0.747

**Q.** Which “polymerase ribozyme fitness (log ratio)” value does the source give for A19U C85U U102G A110U U111A A115U A119C A137U here?
**A.** ≤ -4.2

**Q.** With A19G C87A as the variant, how does the “polymerase ribozyme fitness (log ratio)” value read?
**A.** ≤ -4.2

**Q.** For A19C G68A C108G U111A A120U U135G, which “polymerase ribozyme fitness (log ratio)” value is on record?
**A.** ≤ -4.2

**Q.** For A19U A64G C85G, which “polymerase ribozyme fitness (log ratio)” value is on record?
**A.** ≤ -4.2

**Q.** For A19U C35A A49U, which “polymerase ribozyme fitness (log ratio)” value is on record?
**A.** ≤ -4.2

**Q.** For A19C A22G G25U U55A C75G C85A A98U A121U, which “polymerase ribozyme fitness (log ratio)” value is on record?
**A.** ≤ -4.2

**Q.** Which “polymerase ribozyme fitness (log ratio)” value does the source give for A19U C32G C85A A115C here?
**A.** ≤ -4.2

**Q.** For A19G C54A C85G U90C G133A U144G, which “polymerase ribozyme fitness (log ratio)” value is on record?
**A.** ≤ -4.2

**Q.** Which “polymerase ribozyme fitness (log ratio)” value does the source give for A19C A22G A64U C72G C123U U144A here?
**A.** ≤ -4.2
